Viability of KB3-1 and Nalm-6 cells after 48 h of drug alone (CellTiter-Glo), 11 doses over about 4.5 log units. % of DMSO wells, lower = more cell loss; AC50 from the fitted curve, lower = more potent. No active / inactive call. Nalm-6 was screened in two runs. AC50 is listed only for well-fitted inhibitory curves. KB3-1 is a HeLa-derived carcinoma line, Nalm-6 a B-cell precursor leukaemia line.
Tests used:
KB3-1 [1] = test: log AC50 of viability decrease (48 h) (log10 M); higher = less potent
Description: (§1)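 Eleven-dose screen of the NCATS MIPE 3 library on cells without co-treatment; CellTiter-Glo after 48 h. AC50 from the curve fit; only inhibitory curves of the better fit classes are listed.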

Nalm-6 [2] = test: as above
Description: as §1

KB3-1 [3] = test: viability (% of DMSO control); higher = more viable cells
Description: (§2)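 Eleven-dose screen of the NCATS MIPE 3 library on cells without co-treatment; CellTiter-Glo after 48 h, as % of DMSO wells.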

Nalm-6 [4] = test: as above
Description: as §2

CC(C)c1ccc2c(c1)c(SC(C)(C)C)c(CC(C)(C)C(=O)O)n2Cc1ccc(Cl)cc1 [MK-886]
log AC50 of viability decrease (KB3-1 [1]): -4.93 | log AC50 of viability decrease (Nalm-6 [2]; run: 1): -4.88 | log AC50 of viability decrease (Nalm-6 [2]; run: 2): -4.88 | viability (KB3-1 [3]; 0.00078 µM): 102% | viability (KB3-1 [3]; 0.00234 µM): 101% | viability (KB3-1 [3]; 0.00702 µM): 99.3% | viability (KB3-1 [3]; 0.0211 µM): 104% | viability (KB3-1 [3]; 0.0632 µM): 107% | viability (KB3-1 [3]; 0.19 µM): 104% | viability (KB3-1 [3]; 0.569 µM): 110% | viability (KB3-1 [3]; 1.71 µM): 104% | viability (KB3-1 [3]; 5.12 µM): 92.9% | viability (KB3-1 [3]; 15.4 µM): 58.6% | viability (KB3-1 [3]; 46.1 µM): 37.5% | viability (Nalm-6 [4]; run: 1, 0.00078 µM): 93.1% | viability (Nalm-6 [4]; run: 1, 0.00234 µM): 99.6% | viability (Nalm-6 [4]; run: 1, 0.00702 µM): 109% | viability (Nalm-6 [4]; run: 1, 0.0211 µM): 97.6% | viability (Nalm-6 [4]; run: 1, 0.0632 µM): 96.4% | viability (Nalm-6 [4]; run: 1, 0.19 µM): 122% | viability (Nalm-6 [4]; run: 1, 0.569 µM): 119% | viability (Nalm-6 [4]; run: 1, 1.71 µM): 119% | viability (Nalm-6 [4]; run: 1, 5.12 µM): 106% | viability (Nalm-6 [4]; run: 1, 15.4 µM): 44.1% | viability (Nalm-6 [4]; run: 1, 46.1 µM): 10.9% | viability (Nalm-6 [4]; run: 2, 0.00078 µM): 97% | viability (Nalm-6 [4]; run: 2, 0.00234 µM): 96.8% | viability (Nalm-6 [4]; run: 2, 0.00702 µM): 108% | viability (Nalm-6 [4]; run: 2, 0.0211 µM): 102% | viability (Nalm-6 [4]; run: 2, 0.0632 µM): 103% | viability (Nalm-6 [4]; run: 2, 0.19 µM): 104% | viability (Nalm-6 [4]; run: 2, 0.569 µM): 110% | viability (Nalm-6 [4]; run: 2, 1.71 µM): 106% | viability (Nalm-6 [4]; run: 2, 5.12 µM): 102% | viability (Nalm-6 [4]; run: 2, 15.4 µM): 44.1% | viability (Nalm-6 [4]; run: 2, 46.1 µM): 8.1%

Cc1cc(Nc2cc(N3CCN(C)CC3)nc(Sc3ccc(NC(=O)C4CC4)cc3)n2)[nH]n1 [Tozasertib]
log AC50 of viability decrease (KB3-1 [1]): -4.73 | log AC50 of viability decrease (Nalm-6 [2]; run: 1): -5.13 | log AC50 of viability decrease (Nalm-6 [2]; run: 2): -5.13 | viability (KB3-1 [3]; 0.00078 µM): 97.3% | viability (KB3-1 [3]; 0.00234 µM): 100% | viability (KB3-1 [3]; 0.00702 µM): 94.3% | viability (KB3-1 [3]; 0.0211 µM): 91.8% | viability (KB3-1 [3]; 0.0632 µM): 94.3% | viability (KB3-1 [3]; 0.19 µM): 93.3% | viability (KB3-1 [3]; 0.569 µM): 90.2% | viability (KB3-1 [3]; 1.71 µM): 90% | viability (KB3-1 [3]; 5.12 µM): 81% | viability (KB3-1 [3]; 15.4 µM): 68.2% | viability (KB3-1 [3]; 46.1 µM): 48.4% | viability (Nalm-6 [4]; run: 1, 0.00078 µM): 84.7% | viability (Nalm-6 [4]; run: 1, 0.00234 µM): 87.8% | viability (Nalm-6 [4]; run: 1, 0.00702 µM): 64.8% | viability (Nalm-6 [4]; run: 1, 0.0211 µM): 64.1% | viability (Nalm-6 [4]; run: 1, 0.0632 µM): 53.6% | viability (Nalm-6 [4]; run: 1, 0.19 µM): 57.8% | viability (Nalm-6 [4]; run: 1, 0.569 µM): 50.4% | viability (Nalm-6 [4]; run: 1, 1.71 µM): 48.8% | viability (Nalm-6 [4]; run: 1, 5.12 µM): 50.6% | viability (Nalm-6 [4]; run: 1, 15.4 µM): 38% | viability (Nalm-6 [4]; run: 1, 46.1 µM): 4.83% | viability (Nalm-6 [4]; run: 2, 0.00078 µM): 95.5% | viability (Nalm-6 [4]; run: 2, 0.00234 µM): 93.5% | viability (Nalm-6 [4]; run: 2, 0.00702 µM): 78.1% | viability (Nalm-6 [4]; run: 2, 0.0211 µM): 74.1% | viability (Nalm-6 [4]; run: 2, 0.0632 µM): 59.8% | viability (Nalm-6 [4]; run: 2, 0.19 µM): 65.2% | viability (Nalm-6 [4]; run: 2, 0.569 µM): 60.6% | viability (Nalm-6 [4]; run: 2, 1.71 µM): 55.9% | viability (Nalm-6 [4]; run: 2, 5.12 µM): 54.8% | viability (Nalm-6 [4]; run: 2, 15.4 µM): 33% | viability (Nalm-6 [4]; run: 2, 46.1 µM): 5.71%

Nc1ccccc1NC(=O)c1ccc(CNC(=O)OCc2cccnc2)cc1 [Entinostat]
log AC50 of viability decrease (KB3-1 [1]): -5.23 | log AC50 of viability decrease (Nalm-6 [2]; run: 1): -6.18 | log AC50 of viability decrease (Nalm-6 [2]; run: 2): -6.28 | viability (KB3-1 [3]; 0.00078 µM): 99.9% | viability (KB3-1 [3]; 0.00234 µM): 104% | viability (KB3-1 [3]; 0.00702 µM): 111% | viability (KB3-1 [3]; 0.0211 µM): 112% | viability (KB3-1 [3]; 0.0632 µM): 106% | viability (KB3-1 [3]; 0.19 µM): 102% | viability (KB3-1 [3]; 0.569 µM): 84% | viability (KB3-1 [3]; 1.71 µM): 66.9% | viability (KB3-1 [3]; 5.12 µM): 61.7% | viability (KB3-1 [3]; 15.4 µM): 57.7% | viability (KB3-1 [3]; 46.1 µM): 24.4% | viability (Nalm-6 [4]; run: 1, 0.00078 µM): 113% | viability (Nalm-6 [4]; run: 1, 0.00234 µM): 114% | viability (Nalm-6 [4]; run: 1, 0.00702 µM): 123% | viability (Nalm-6 [4]; run: 1, 0.0211 µM): 131% | viability (Nalm-6 [4]; run: 1, 0.0632 µM): 119% | viability (Nalm-6 [4]; run: 1, 0.19 µM): 105% | viability (Nalm-6 [4]; run: 1, 0.569 µM): 72.5% | viability (Nalm-6 [4]; run: 1, 1.71 µM): 21.1% | viability (Nalm-6 [4]; run: 1, 5.12 µM): 8.9% | viability (Nalm-6 [4]; run: 1, 15.4 µM): 8.66% | viability (Nalm-6 [4]; run: 1, 46.1 µM): 3.6% | viability (Nalm-6 [4]; run: 2, 0.00078 µM): 106% | viability (Nalm-6 [4]; run: 2, 0.00234 µM): 108% | viability (Nalm-6 [4]; run: 2, 0.00702 µM): 117% | viability (Nalm-6 [4]; run: 2, 0.0211 µM): 107% | viability (Nalm-6 [4]; run: 2, 0.0632 µM): 116% | viability (Nalm-6 [4]; run: 2, 0.19 µM): 92.1% | viability (Nalm-6 [4]; run: 2, 0.569 µM): 51.7% | viability (Nalm-6 [4]; run: 2, 1.71 µM): 14.3% | viability (Nalm-6 [4]; run: 2, 5.12 µM): 5.98% | viability (Nalm-6 [4]; run: 2, 15.4 µM): 3.81% | viability (Nalm-6 [4]; run: 2, 46.1 µM): 2.4%
